We go through two molecules from PMC9127544.

Chains of the proteins cited; added tags and fusions are not shown. Lines headed by an entry give the natural chain unless they say otherwise; changes in a name come on top.
UniProt Q3ZCM7: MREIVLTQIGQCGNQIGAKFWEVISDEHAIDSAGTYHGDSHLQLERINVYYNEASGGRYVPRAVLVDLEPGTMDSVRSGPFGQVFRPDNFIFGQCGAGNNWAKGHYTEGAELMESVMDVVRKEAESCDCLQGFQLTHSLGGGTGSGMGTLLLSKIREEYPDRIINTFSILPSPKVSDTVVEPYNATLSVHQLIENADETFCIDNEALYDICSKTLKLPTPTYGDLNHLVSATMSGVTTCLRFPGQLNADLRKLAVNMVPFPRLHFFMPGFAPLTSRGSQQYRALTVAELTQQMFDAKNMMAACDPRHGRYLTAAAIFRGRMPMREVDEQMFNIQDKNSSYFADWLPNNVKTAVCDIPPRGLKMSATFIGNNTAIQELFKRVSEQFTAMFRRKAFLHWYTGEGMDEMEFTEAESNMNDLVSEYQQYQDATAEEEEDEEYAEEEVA
UniProt Q9BTW9: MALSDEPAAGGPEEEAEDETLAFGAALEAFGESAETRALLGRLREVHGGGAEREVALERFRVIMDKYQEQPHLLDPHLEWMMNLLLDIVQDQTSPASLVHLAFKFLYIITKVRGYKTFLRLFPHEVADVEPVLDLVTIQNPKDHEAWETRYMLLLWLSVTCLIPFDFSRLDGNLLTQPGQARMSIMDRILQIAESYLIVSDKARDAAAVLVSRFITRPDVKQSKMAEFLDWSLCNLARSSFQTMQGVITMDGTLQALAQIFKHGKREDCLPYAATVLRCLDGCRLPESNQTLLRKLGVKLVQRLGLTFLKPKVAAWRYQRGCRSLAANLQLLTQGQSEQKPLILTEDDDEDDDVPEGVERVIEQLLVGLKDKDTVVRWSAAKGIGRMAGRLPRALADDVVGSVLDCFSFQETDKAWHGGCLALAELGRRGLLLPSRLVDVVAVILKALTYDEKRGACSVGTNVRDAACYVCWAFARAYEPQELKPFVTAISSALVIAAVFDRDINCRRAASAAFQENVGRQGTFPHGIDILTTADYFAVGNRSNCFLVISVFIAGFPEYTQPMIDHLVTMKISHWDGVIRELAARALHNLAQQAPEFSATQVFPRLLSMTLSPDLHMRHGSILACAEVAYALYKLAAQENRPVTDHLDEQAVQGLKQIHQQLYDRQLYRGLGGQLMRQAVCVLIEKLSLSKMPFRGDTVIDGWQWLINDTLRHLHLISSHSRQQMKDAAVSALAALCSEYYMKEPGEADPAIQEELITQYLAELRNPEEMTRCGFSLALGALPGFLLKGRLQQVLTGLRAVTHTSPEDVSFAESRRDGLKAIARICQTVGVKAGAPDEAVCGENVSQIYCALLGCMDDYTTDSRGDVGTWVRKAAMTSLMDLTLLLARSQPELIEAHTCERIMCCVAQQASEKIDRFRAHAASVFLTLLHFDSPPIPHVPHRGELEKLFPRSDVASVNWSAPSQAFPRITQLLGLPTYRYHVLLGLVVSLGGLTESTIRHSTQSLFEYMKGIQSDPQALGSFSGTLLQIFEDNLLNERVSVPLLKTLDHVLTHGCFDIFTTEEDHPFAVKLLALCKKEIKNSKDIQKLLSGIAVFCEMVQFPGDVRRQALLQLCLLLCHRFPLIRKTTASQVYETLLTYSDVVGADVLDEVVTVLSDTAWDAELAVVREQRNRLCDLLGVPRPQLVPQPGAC

Common to all, as to test: co-IP; HEK293T cells transfected with WT or mutant TUBB8; TBCD and TBCA detected by blot; how the precipitation was done is not described
The target of test [1] is TUBB8 S176L (human) (UniProt Q3ZCM7).
The target of test [2] is wild-type TUBB8 (human) (UniProt Q3ZCM7).
In test [3] the target is TUBB8 A313V (human) (UniProt Q3ZCM7).

Results are given in words; binding and its absence hold for the method and conditions named. In cells and extracts the contact can be indirect. Some binding calls cover weakened binding; strength is not graded here.

For the molecule TBCD (from UniProt Q9BTW9 1-1192), the binding entry in test [1] and in test [2] was “binds” each time.

B1: TBCA (protein, UniProt O75347 1-108)
chain: MADPRVRQIKIKTGVVKRLVKEKVMYEKEAKQQEEKIEKMRAEDGENYDIKKQAEILQESRMMIPDCQRRLEAAYLDLQRILENEKDLEEAEEYKEARLVLDSVKLEA
B1: the binding result in test [3] is listed as “binds”; in test [1] it was “no binding”; in test [2], “binds”.
